According to the supplement of paper PMC7826260:
Some of the results follow. Cleavage of a single-stranded DNA pool by Rep nickase domains was read by sequencing for 1 h at 37 °C with 3 µM enzyme; only the middle of the 90-letter strands is printed. The score is log2 (uncut reads / reads without enzyme); the lower, the more was cut; hits are not called. Counts are relative to all reads; uncut strands gain when others are lost, and binding without cutting may add a little.

Legend:
Experiment in all cases: uncleaved DNA left, log2 of reads against the no-enzyme library (log2 ratio); higher = less cleavage (more negative = more Rep cleavage of the k-mer); sequences stand for … in CTCGTCCG…ACCGGAGA
[1] = test system: T1, Rep nickase domain of Muscovy duck circovirus
T1 sequence (residues 1-111, tag not shown): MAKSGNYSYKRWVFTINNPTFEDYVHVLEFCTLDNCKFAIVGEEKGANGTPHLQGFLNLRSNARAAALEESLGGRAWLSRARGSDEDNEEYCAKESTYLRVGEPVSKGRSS
Experimental: (§1)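 A pool of 90-nt single-stranded DNAs with seven random bases just before the constant AC of the nick site (name = the seven bases) was cut by 3 µM recombinant His6-SUMO-tagged Rep nickase domain (300 nM DNA, 50 mM HEPES pH 8.0, 50 mM NaCl, 1 mM MnCl2, 1 h, 37 °C, three replicates). Uncut DNA was amplified and sequenced.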

[2] = test system: T2, Rep nickase domain of banana bunchy top virus
T2 sequence (residues 1-94, tag not shown): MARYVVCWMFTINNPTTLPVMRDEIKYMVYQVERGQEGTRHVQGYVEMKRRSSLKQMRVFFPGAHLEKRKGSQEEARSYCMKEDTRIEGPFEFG
Experimental: as §1

[3] = test system: T3, Rep nickase domain of cabbage leaf curl virus
T3 sequence (residues 1-116, tag not shown): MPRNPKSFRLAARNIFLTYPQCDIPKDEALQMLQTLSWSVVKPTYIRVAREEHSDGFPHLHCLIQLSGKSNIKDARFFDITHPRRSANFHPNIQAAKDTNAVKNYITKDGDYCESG
Experimental: as §1

[4] = test system: T4, Rep nickase domain of chickpea chlorotic dwarf virus
T4 sequence (residues 1-124, tag not shown): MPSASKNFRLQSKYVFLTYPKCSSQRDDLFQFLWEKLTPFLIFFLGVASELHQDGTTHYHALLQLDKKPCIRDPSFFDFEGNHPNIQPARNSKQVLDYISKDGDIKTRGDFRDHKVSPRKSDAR
Experimental: as §1

[5] = test system: T5, Rep nickase domain of faba bean necrotic yellows virus
T5 sequence (residues 1-98, tag not shown): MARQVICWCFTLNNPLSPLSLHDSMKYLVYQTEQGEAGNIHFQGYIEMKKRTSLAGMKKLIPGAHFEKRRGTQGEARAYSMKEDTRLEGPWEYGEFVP
Experimental: as §1

[6] = test system: T6, Rep nickase domain of maize striate mosaic virus
T6 sequence (residues 1-117, tag not shown): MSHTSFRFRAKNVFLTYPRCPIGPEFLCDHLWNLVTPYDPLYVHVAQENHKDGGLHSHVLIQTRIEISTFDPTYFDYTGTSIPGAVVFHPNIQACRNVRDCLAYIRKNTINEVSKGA
Experimental: as §1

[7] = test system: T7, Rep nickase domain of porcine circovirus 2
T7 sequence (residues 2-116, tag not shown): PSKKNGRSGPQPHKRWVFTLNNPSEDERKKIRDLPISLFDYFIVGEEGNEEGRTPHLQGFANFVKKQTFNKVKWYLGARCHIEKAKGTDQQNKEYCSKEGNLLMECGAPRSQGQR
Experimental: as §1

[8] = test system: T8, Rep nickase domain of tomato golden mosaic virus
T8 sequence (residues 1-124, tag not shown): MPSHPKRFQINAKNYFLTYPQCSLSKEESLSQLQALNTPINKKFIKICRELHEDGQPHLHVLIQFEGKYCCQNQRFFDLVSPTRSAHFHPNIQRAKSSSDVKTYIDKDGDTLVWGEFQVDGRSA
Experimental: as §1

[9] = test system: T9, Rep nickase domain of tomato yellow leaf curl virus
T9 sequence (residues 1-136, tag not shown): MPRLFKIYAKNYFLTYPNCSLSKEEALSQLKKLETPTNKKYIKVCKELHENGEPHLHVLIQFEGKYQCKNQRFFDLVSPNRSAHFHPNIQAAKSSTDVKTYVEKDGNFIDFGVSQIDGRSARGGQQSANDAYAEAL
Experimental: as §1

[10] = test system: T10, Rep nickase domain of wheat dwarf virus
T10 sequence (residues 1-137, tag not shown): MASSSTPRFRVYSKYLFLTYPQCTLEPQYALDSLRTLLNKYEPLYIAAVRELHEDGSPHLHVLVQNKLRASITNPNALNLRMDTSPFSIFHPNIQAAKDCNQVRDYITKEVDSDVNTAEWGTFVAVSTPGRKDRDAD
Experimental: as §1

| Sequence | uncleaved DNA left (log2) [1] | uncleaved DNA left (log2) [2] | uncleaved DNA left (log2) [3] | uncleaved DNA left (log2) [4] | uncleaved DNA left (log2) [5] | uncleaved DNA left (log2) [6] | uncleaved DNA left (log2) [7] | uncleaved DNA left (log2) [8] | uncleaved DNA left (log2) [9] | uncleaved DNA left (log2) [10] |
| --- | --- | --- | --- | --- | --- | --- | --- | --- | --- | --- |
| TTACGTG | -0.164 | -0.0415 | -0.712 | -1.24 | -0.107 | -1.2 | 0.0337 | -0.0619 | -0.0398 | -0.194 |
| CAACCTA | -0.103 | -0.013 | -0.371 | -2.49 | -0.0154 | -0.771 | -1.28 | -0.123 | -0.0933 | -0.129 |
| GATTCGC | 0.0316 | -0.127 | -0.346 | -0.367 | -0.12 | -0.982 | 0.0334 | -0.104 | 0.0482 | 0.00563 |
| TGGTTCA | -0.0164 | 0.0567 | 0.3 | 0.0961 | -0.0851 | 0.807 | -0.126 | 0.00224 | 0.0873 | 0.0934 |
| TGTTGCG | -0.218 | -0.25 | 0.0667 | 0.938 | -0.113 | 1.48 | -0.0865 | -0.258 | -0.369 | -0.246 |
| AGGGCGA | -0.0267 | -0.0618 | -0.436 | -0.241 | -0.0642 | -0.58 | 0.155 | -0.078 | -0.0894 | -0.186 |
| AGAGAGT | 0.0119 | -0.0731 | 0.0651 | 0.473 | -0.128 | 0.851 | 0.0984 | 0.0738 | -0.182 | 0.0527 |
| AGGGAAC | 0.0169 | 0.2 | 0.436 | 1.44 | 0.0237 | 1.09 | 0.156 | 0.173 | 0.0804 | 0.0471 |
| TACTGAA | -0.102 | -0.0486 | -0.00565 | 0.231 | -0.0171 | 0.898 | -2.13 | 0.0325 | 0.00179 | 0.0918 |
| CTGATCC | -0.0628 | -0.111 | 0.0127 | 0.362 | -0.257 | 0.167 | -0.0379 | -0.118 | -0.108 | -0.0453 |
| AACAGTA | 0.00802 | 0.0335 | -0.24 | -1.77 | 0.0546 | -0.827 | -0.339 | 0.0377 | -0.0195 | -0.0495 |
| GGAAAAT | 0.146 | 0.289 | 0.978 | 2.09 | 0.223 | 2.3 | 0.246 | 0.242 | 0.0884 | 0.296 |
| ATGCCGA | -0.0427 | -0.0588 | -0.348 | -0.405 | 0.117 | -1.07 | 0.0488 | -0.00186 | -0.134 | -0.0406 |
| AAGGTCA | 0.0246 | 0.0636 | 0.107 | -0.0344 | -0.111 | 0.54 | -0.036 | 0.0111 | 0.0143 | 0.0535 |
| GCTGGCA | -0.0238 | 0.0147 | 0.0346 | 0.518 | -0.117 | 0.482 | 0.0437 | 0.0539 | -0.0921 | 0.0245 |
